For test [1], the system named is HSkMC (human skeletal muscle cells). Put plainly: cytotoxicity call (relative viability < 0.9). The following applies: 10 µM.
Test [2] deals with S. aureus RN4220. Put plainly: growth inhibition call (relative growth <= 0.2). As to conditions: 50 µM.

This is one part of the list.

For `C[C@@H]1CN([C@@H](C)CO)C(=O)c2cc(NC(=O)c3ccncc3)ccc2O[C@@H]1CN(C)Cc1ccc(-c2ccccc2)cc1`, the cytotoxicity call in test [1] is “inactive”. Further, the growth inhibition call in test [2] is “inactive”.
With `C=CC[C@@H](CC(=O)N(CCO)Cc1ccccc1)C(=O)N[C@H](COC(=O)[C@@H](CC=C)CC(=O)OC(C)(C)C)Cc1c[nH]c2ccccc12`, the cytotoxicity call in test [1] is “inactive”. In test [2], the growth inhibition call is “inactive”.
Consider `COc1ccccc1CNC(=O)C[C@H]1C[C@H]2c3cc(NC(=O)Nc4ccc(C(F)(F)F)cc4)ccc3O[C@H]2[C@H](CO)O1`, for which the cytotoxicity call in test [1] was “inactive”. Also, the growth inhibition call in test [2] was “inactive”.
Consider `CCCCC(=O)OC1CCC2C3CCc4cc(O)ccc4C3CCC12C` (stereo unspecified), for which the cytotoxicity call in test [1] was “inactive”. Further, the growth inhibition call in test [2] is “inactive”.
Turning to `C[C@H](CO)N1C[C@H](C)[C@@H](CN(C)CC2CC2)OCCCC[C@H](C)Oc2ccc(NC(=O)Nc3cccc4ccccc34)cc2C1=O`, in test [1], the cytotoxicity call was “inactive”. In addition, in test [2], the growth inhibition call is “inactive”.
On to `C[C@@H]1CN([C@H](C)CO)C(=O)c2cc(NC(=O)C3CCCCC3)ccc2O[C@@H]1CN(C)C(=O)Nc1ccc(C(F)(F)F)cc1`, for which, in test [1], the cytotoxicity call is “inactive”. The growth inhibition call in test [2] is “inactive”.
Turning to `CO[C@H]1CN(C)C(=O)c2ccc(NS(=O)(=O)CC(F)(F)F)cc2OC[C@H](C)N(C(=O)NC(C)C)C[C@@H]1C`, the cytotoxicity call in test [1] was “inactive”. For the same compound, the growth inhibition call in test [2] was “inactive”.
For `CNC[C@@H]1OCCCC[C@@H](C)Oc2ccc(NS(=O)(=O)c3cn(C)cn3)cc2C(=O)N([C@H](C)CO)C[C@@H]1C`, the cytotoxicity call in test [1] was “inactive”. Also, the growth inhibition call in test [2] is “inactive”.
Turning to `O=C(NCCCN1CCOCC1)[C@H]1[C@H](CO)[C@H]2Cn3c(cccc3=O)[C@@H]1N2C(=O)NC1CCCC1`, the cytotoxicity call in test [1] was “inactive”. In test [2], the growth inhibition call is “inactive”.
For the compound `Nc1nnc(SC[C@@H](O)CO)s1`, in test [1], the cytotoxicity call is “inactive”. Further, in test [2], the growth inhibition call is “inactive”.
Turning to `Cc1cc(C(=O)c2cc3cc(Cl)ccc3o2)ccc1Cl`, in test [1], the cytotoxicity call is “inactive”. The growth inhibition call in test [2] was “inactive”.
For `NCC(=O)OCc1ccccc1`, the cytotoxicity call in test [1] is “inactive”. In test [2], the growth inhibition call is “inactive”.
For the compound `C[C@@H]1CN([C@H](C)CO)C(=O)c2cc(NC(=O)NC3CCCCC3)ccc2O[C@@H](C)CCCCO[C@H]1CN(C)C(=O)Nc1ccc(C(F)(F)F)cc1`, in test [1], the cytotoxicity call is “inactive”. Further, the growth inhibition call in test [2] was “inactive”.
Regarding `Cn1cnc(S(=O)(=O)N2C[C@H](O)COC[C@H]3O[C@H](CC(=O)NC4Cc5ccccc5C4)CC[C@@H]32)c1`, the cytotoxicity call in test [1] was “inactive”. For the same compound, in test [2], the growth inhibition call was “inactive”.
Turning to `C[C@@H]1CN([C@H](C)CO)C(=O)CCCn2nncc2CO[C@H]1CN(C)S(=O)(=O)c1cn(C)cn1`, in test [1], the cytotoxicity call was “inactive”. Also, in test [2], the growth inhibition call was “inactive”.
As to `C[C@H]1CN([C@@H](C)CO)C(=O)c2cc(NS(=O)(=O)c3ccccc3)ccc2O[C@H]1CN(C)Cc1ccc(Oc2ccccc2)cc1`, the cytotoxicity call in test [1] is “inactive”. Also, the growth inhibition call in test [2] was “inactive”.
As for `Cc1ccc(S(=O)(=O)N(C)C[C@@H]2OCCCC[C@@H](C)Oc3ccc(NC(=O)Nc4ccc(F)cc4)cc3C(=O)N([C@@H](C)CO)C[C@@H]2C)cc1`, the cytotoxicity call in test [1] is “inactive”. Further, the growth inhibition call in test [2] was “inactive”.
Turning to `C[C@H]1CN([C@@H](C)CO)C(=O)Cc2cc(NC(=O)Nc3ccc(C(F)(F)F)cc3)ccc2O[C@@H]1CN(C)C(=O)Nc1ccccc1`, in test [1], the cytotoxicity call is “inactive”. Also, in test [2], the growth inhibition call was “inactive”.
Take `O=C(C[C@H]1C[C@H]2c3cc(NC(=O)c4ccc5c(c4)OCO5)ccc3O[C@H]2[C@H](CO)O1)NCCN1CCCCC1`: the cytotoxicity call in test [1] was “inactive”. Moreover, the growth inhibition call in test [2] was “inactive”.
As to `C[C@@H]1CN([C@@H](C)CO)C(=O)c2cc(NC(=O)Nc3ccc4c(c3)OCO4)ccc2O[C@@H]1CN(C)C(=O)Nc1ccc(C(F)(F)F)cc1`, in test [1], the cytotoxicity call is “inactive”. Moreover, the growth inhibition call in test [2] is “inactive”.
Consider `C[C@@H]1CN([C@H](C)CO)C(=O)c2cc(NC(=O)Cc3cn(C)c4ccccc34)ccc2O[C@H]1CN(C)Cc1ccc(-c2ccccc2)cc1`, for which the cytotoxicity call in test [1] was “inactive”. Further, in test [2], the growth inhibition call is “inactive”.
With `Cc1[nH]c(=O)[nH]c(=O)c1S(=O)(=O)N1CCC[C@H](C(=O)NCc2ccc3c(c2)OCO3)C1`, in test [1], the cytotoxicity call was “inactive”. Further, the growth inhibition call in test [2] was “inactive”.
In the case of `C[C@H]1CCCCO[C@@H](CN(C)S(=O)(=O)c2ccc(F)cc2)[C@@H](C)CN([C@@H](C)CO)C(=O)c2cc(NC(=O)CCC(F)(F)F)ccc2O1`, in test [1], the cytotoxicity call was “inactive”. The growth inhibition call in test [2] was “inactive”.
Regarding `C[C@@H]1O[C@H](O[C@H]2[C@H](OC(=O)[C@]34CCC(C)(C)C[C@@H]3C3=CC[C@@H]5[C@@]6(C)CC[C@H](O[C@@H]7O[C@@H](C)[C@H](O[C@@H]8OC[C@@H](O)[C@H](O)[C@H]8O)[C@@H](O)[C@H]7O)C(C)(C)[C@@H]6CC[C@@]5(C)[C@]3(C)C[C@@H]4O)OC[C@H](O)[C@H]2O)[C@H](O)[C@H](O)[C@H]1O[C@@H]1O[C@H](CO)[C@@H](O)[C@H](O)[C@H]1O`, in test [1], the cytotoxicity call was “inactive”. Besides, the growth inhibition call in test [2] is “inactive”.
For the compound `COc1ccc(CN(C)C[C@H]2OCCCC[C@H](C)Oc3ccc(NC(=O)CCC(F)(F)F)cc3C(=O)N([C@@H](C)CO)C[C@H]2C)cc1`, in test [1], the cytotoxicity call is “inactive”. Also, the growth inhibition call in test [2] is “inactive”.
As to `COc1cccc(S(=O)(=O)N(C)C[C@@H]2Oc3cc(C4=CCCC4)ccc3S(=O)(=O)N([C@@H](C)CO)C[C@H]2C)c1`, the cytotoxicity call in test [1] is “inactive”. Further, in test [2], the growth inhibition call was “inactive”.
`O=C(O)C(O)C(O)C(OC1OC(CO)C(O)C(O)C1O)C(O)CO` (stereo unspecified): in test [1], the cytotoxicity call is “inactive”. In addition, the growth inhibition call in test [2] is “inactive”.
Turning to `C[C@H]1CN([C@@H](C)CO)C(=O)Cc2cc(NC(=O)CCN3CCOCC3)ccc2O[C@@H]1CN(C)Cc1ccncc1`, in test [1], the cytotoxicity call is “inactive”. In addition, the growth inhibition call in test [2] is “inactive”.
`C[C@H]1CN([C@@H](C)CO)C(=O)c2cc(NS(C)(=O)=O)ccc2O[C@@H]1CN(C)C(=O)Nc1ccc(C(F)(F)F)cc1`: the cytotoxicity call in test [1] is “inactive”. Further, the growth inhibition call in test [2] is “inactive”.
In the case of `C[C@@H]1CN([C@@H](C)CO)C(=O)c2cc(NS(=O)(=O)c3ccc(Cl)cc3)ccc2O[C@@H](C)CCCCO[C@H]1CN(C)Cc1ccc(C(=O)O)cc1`, the cytotoxicity call in test [1] is “inactive”. Moreover, in test [2], the growth inhibition call was “inactive”.
Regarding `C[C@H](CO)N1C[C@H](C)[C@H](CN(C)Cc2ccc(C(=O)Nc3ccccc3N)cc2)Oc2ccc(NS(=O)(=O)c3cn(C)cn3)cc2C1=O`, the cytotoxicity call in test [1] was “inactive”. Moreover, the growth inhibition call in test [2] was “inactive”.
With `COc1cc(/C=C/C(=O)NCCCNC(=O)/C=C/c2cc(OC)c(OC)c(OC)c2)cc(OC)c1OC`, in test [1], the cytotoxicity call was “inactive”. The growth inhibition call in test [2] was “inactive”.
As to `C[C@@H]1CN([C@@H](C)CO)C(=O)c2cc(NC(=O)CCCN(C)C)ccc2O[C@@H]1CN(C)S(=O)(=O)c1ccc(F)cc1`, the cytotoxicity call in test [1] was “inactive”. For the same compound, the growth inhibition call in test [2] was “inactive”.
With `CC(C)CC#Cc1ccc2c(c1)O[C@@H](CN(C)C(=O)c1cccnc1)[C@H](C)CN([C@H](C)CO)S2(=O)=O`, the cytotoxicity call in test [1] is “inactive”. In test [2], the growth inhibition call was “inactive”.
On to `C[C@@H]1CCCCO[C@@H](CN(C)CC2CCCCC2)[C@H](C)CN([C@@H](C)CO)C(=O)c2cc(NC(=O)c3ccccc3)ccc2O1`, for which the cytotoxicity call in test [1] was “inactive”. For the same compound, the growth inhibition call in test [2] was “inactive”.
As for `C[C@H](CO)N1C[C@H](C)[C@@H](CN(C)C(=O)NC2CCCCC2)OCCCC[C@H](C)Oc2ccc(NS(=O)(=O)c3ccccc3)cc2C1=O`, the cytotoxicity call in test [1] is “inactive”. Further, the growth inhibition call in test [2] was “inactive”.
Turning to `C[C@@H]1CCCCO[C@@H](CN(C)C(=O)Cc2ccccc2)[C@@H](C)CN([C@H](C)CO)C(=O)c2cc(NS(=O)(=O)c3ccc(F)cc3)ccc2O1`, the cytotoxicity call in test [1] is “inactive”. In test [2], the growth inhibition call is “inactive”.
With `C[C@@H]1CN([C@H](C)CO)C(=O)c2cc(C#Cc3cccnc3)cnc2O[C@H]1CN(C)S(=O)(=O)c1ccccc1F`, in test [1], the cytotoxicity call is “inactive”. Further, the growth inhibition call in test [2] was “inactive”.
Regarding `COc1ccc([C@H]([C@H](Cc2ccccc2)OC(C)=O)N(C/C=C\[C@@H](O)c2ccccc2)[C@@H](Cc2ccccc2)C(OC)OC)cc1`, in test [1], the cytotoxicity call is “inactive”. Besides, in test [2], the growth inhibition call is “inactive”.
For `O=C(C[C@H]1CC[C@@H](NC(=O)c2cnccn2)[C@@H](CO)O1)NCc1ccccc1F`, in test [1], the cytotoxicity call is “inactive”. Besides, in test [2], the growth inhibition call is “inactive”.
Consider `C[C@H]1CN([C@@H](C)CO)C(=O)c2cc(NC(=O)Nc3ccc(C(F)(F)F)cc3)ccc2O[C@@H]1CN(C)C(=O)Nc1ccc(F)cc1`, for which the cytotoxicity call in test [1] was “inactive”. The growth inhibition call in test [2] was “inactive”.
For `C[C@@H]1CN([C@H](C)CO)C(=O)Cc2cc(NC(=O)c3ccncc3)ccc2O[C@H]1CN(C)Cc1ccc(-c2ccccc2)cc1`, the cytotoxicity call in test [1] is “inactive”. Besides, the growth inhibition call in test [2] was “inactive”.
Consider `COCC(=O)N1CC[C@]2(CC1)CN(Cc1ccc3c(c1)OCO3)[C@@H](CO)c1c2c2ccc(cc2n1C)OC`, for which the cytotoxicity call in test [1] was “inactive”. In test [2], the growth inhibition call was “inactive”.
Regarding `COc1ccc(S(=O)(=O)Nc2ccc3c(c2)CC(=O)N([C@@H](C)CO)C[C@H](C)[C@H](CN(C)S(=O)(=O)c2cccs2)O3)cc1`, in test [1], the cytotoxicity call is “inactive”. The growth inhibition call in test [2] was “inactive”.
As for `C[C@@H]1CN([C@H](C)CO)C(=O)Cc2cc(NC(=O)Cn3cnnn3)ccc2O[C@H]1CN(C)S(=O)(=O)c1ccc(Cl)cc1`, the cytotoxicity call in test [1] is “inactive”. The growth inhibition call in test [2] was “inactive”.
`COc1cc2nc(N3CCCN(Cc4ccccc4)CC3)nc(NC3CCN(Cc4ccccc4)CC3)c2cc1OC`: the cytotoxicity call in test [1] was “inactive”. In test [2], the growth inhibition call was “inactive”.
Consider `Cn1c(=O)c2[nH]c(Br)nc2n(C)c1=O`, for which the cytotoxicity call in test [1] is “inactive”. Further, the growth inhibition call in test [2] is “inactive”.
On to `C[C@H]1CN([C@@H](C)CO)C(=O)c2cc(NC(=O)Nc3ccc(F)cc3)ccc2O[C@@H]1CN(C)Cc1ccc(-c2ccccc2)cc1`, for which, in test [1], the cytotoxicity call was “inactive”. The growth inhibition call in test [2] is “inactive”.
On to `Cc1noc(C)c1S(=O)(=O)Nc1ccc2c(c1)C(=O)N([C@@H](C)CO)C[C@H](C)[C@H](CN(C)S(=O)(=O)c1ccccc1)O2`, for which the cytotoxicity call in test [1] is “inactive”. In addition, in test [2], the growth inhibition call was “inactive”.
For the compound `COc1ccccc1C(=O)Nc1ccc2c(c1)C(=O)N(C)[C@@H]1CC[C@@H](CC(=O)NCCc3ccncc3)O[C@H]1CO2`, the cytotoxicity call in test [1] was “inactive”. Further, in test [2], the growth inhibition call was “inactive”.
For the compound `C[C@H]1CCCCO[C@@H](CN(C)C(=O)Nc2cccc3ccccc23)[C@@H](C)CN([C@@H](C)CO)C(=O)c2cc(NS(=O)(=O)c3ccc(Cl)cc3)ccc2O1`, the cytotoxicity call in test [1] was “inactive”. Also, the growth inhibition call in test [2] was “inactive”.
For the compound `C[C@H](CO)N1C[C@H](C)[C@H](CN(C)C(=O)NC2CCCCC2)Oc2ccc(NC(=O)Nc3ccc(C(F)(F)F)cc3)cc2CC1=O`, the cytotoxicity call in test [1] was “inactive”. Besides, the growth inhibition call in test [2] was “inactive”.
With `Cc1noc(C)c1NC(=O)Nc1ccc2c(c1)C(=O)N([C@@H](C)CO)C[C@@H](C)[C@H](CN(C)S(=O)(=O)c1ccccc1)OCCCC[C@@H](C)O2`, the cytotoxicity call in test [1] is “inactive”. Besides, the growth inhibition call in test [2] was “inactive”.

The record behind these values is the antibiotic and cytotoxicity screens of Wong et al. (2023).
